In PMC4242493 one finds binding signal (normalized occupancy) data, which are given here for 172 sequences.

The other results are listed elsewhere or left out. The list includes weakly bound sequences.

This test has as its target MaxL homodimer (UniProt P61244). Kind of test: universal protein-binding microarray (PBM). As to conditions: PBS-based mixture, 10 nM His-tagged protein dimer, 2% milk, 200 ng/uL BSA, 50 ng/uL salmon testes DNA, 0.02% TX-100; detection with Alexa 488 anti-His …; high values mean tight binding; most listed sequences are background and not binding sites; double strand, one strand shown.
UniProt P61244, sequence (P61244 whole entry): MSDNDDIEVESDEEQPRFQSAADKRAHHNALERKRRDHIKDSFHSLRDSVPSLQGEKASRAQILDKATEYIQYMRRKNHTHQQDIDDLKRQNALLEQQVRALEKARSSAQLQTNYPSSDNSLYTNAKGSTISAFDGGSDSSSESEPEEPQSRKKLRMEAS
Consider CACTGGAG, for which the binding signal (normalized occupancy) amounted to 0.0697.

ATGAGGTG: the binding signal (normalized occupancy) came out at 0.0912.

As to ACGTTAGC, the binding signal (normalized occupancy) was 0.0827.

As to CTACCCTC, the binding signal (normalized occupancy) came to 0.0785.

In the case of GGTGGCAC, the binding signal (normalized occupancy) worked out at 0.0789.

Regarding CTCAGGTC, the binding signal (normalized occupancy) came to 0.0673.

For the sequence GGAAAGGA, the binding signal (normalized occupancy) is 0.0727.

As for GGCAAAAC, the binding signal (normalized occupancy) was determined as 0.0695.

In the case of AACTCTAG, the binding signal (normalized occupancy) was 0.0718.

Take AGATACGC: the binding signal (normalized occupancy) is 0.0745.

For CCAGAGTA, the binding signal (normalized occupancy) worked out at 0.07.

As to AGGTGCAA, the binding signal (normalized occupancy) was determined as 0.0732.

As to AAAGAGCA, the binding signal (normalized occupancy) came out at 0.0761.

As for CTTAGACC, the binding signal (normalized occupancy) came out at 0.0714.

Regarding AGCGTACT, the binding signal (normalized occupancy) was determined as 0.0725.

As for AGCATCCA, the binding signal (normalized occupancy) came to 0.0745.

For the sequence CACGCTCA, the binding signal (normalized occupancy) turned out to be 0.0911.

On to CTGTGTAA, for which the binding signal (normalized occupancy) worked out at 0.0739.

For the sequence ACAAATGG, the binding signal (normalized occupancy) turned out to be 0.0846.

For the sequence TGGGCGAA, the binding signal (normalized occupancy) was 0.0787.

Take CCGGCTAA: the binding signal (normalized occupancy) was 0.0678.

For AATATCTG, the binding signal (normalized occupancy) turned out to be 0.0769.

Regarding CGCCTCAA, the binding signal (normalized occupancy) worked out at 0.0686.

Turning to GCAGCTGA, the binding signal (normalized occupancy) turned out to be 0.0699.

For the sequence CCTCGCCC, the binding signal (normalized occupancy) was determined as 0.0743.

CTCATCTA: the binding signal (normalized occupancy) stood at 0.0801.

As for TGCAGGAA, the binding signal (normalized occupancy) was found to be 0.0773.

Turning to AAGGTTGC, the binding signal (normalized occupancy) came to 0.074.

In the case of CCGTTCCC, the binding signal (normalized occupancy) turned out to be 0.0767.

Turning to ACGTTCAC, the binding signal (normalized occupancy) was 0.0869.

In the case of GGTTCAAC, the binding signal (normalized occupancy) came to 0.0739.

CACCCCAA: the binding signal (normalized occupancy) stood at 0.0828.

For CTAGCTTA, the binding signal (normalized occupancy) was determined as 0.0705.

TGGTACAA: the binding signal (normalized occupancy) was found to be 0.0836.

CAGAGACC: the binding signal (normalized occupancy) is 0.0727.

ACCGAACG: the binding signal (normalized occupancy) is 0.0693.

With CGCCGGAC, the binding signal (normalized occupancy) came out at 0.0751.

Take AGCTGAAT: the binding signal (normalized occupancy) was found to be 0.073.

Consider GTCATGGA, for which the binding signal (normalized occupancy) was 0.0831.

ACCCCTTA: the binding signal (normalized occupancy) was 0.0764.

In the case of GAAAACTC, the binding signal (normalized occupancy) was 0.0701.

Regarding AATTCTGC, the binding signal (normalized occupancy) stood at 0.0713.

As for CGAACGCG, the binding signal (normalized occupancy) worked out at 0.0729.

Consider CGACGGGA, for which the binding signal (normalized occupancy) worked out at 0.0752.

As for ATTAATGG, the binding signal (normalized occupancy) was found to be 0.0784.

Take AGTGGCGA: the binding signal (normalized occupancy) was 0.0707.

As to CCTTAGTC, the binding signal (normalized occupancy) was found to be 0.0691.

In the case of CCGGTACA, the binding signal (normalized occupancy) was 0.0743.

With ACCGGAGA, the binding signal (normalized occupancy) came to 0.0719.

Take GTAACCAC: the binding signal (normalized occupancy) was found to be 0.0808.

As for GTTACGGA, the binding signal (normalized occupancy) was found to be 0.0697.

As for GCACGACA, the binding signal (normalized occupancy) is 0.0849.

For the sequence ATAGTGTC, the binding signal (normalized occupancy) amounted to 0.0799.

For CGAACGTC, the binding signal (normalized occupancy) is 0.0695.

CTGCACCA: the binding signal (normalized occupancy) turned out to be 0.0748.

On to AGAGTTGG, for which the binding signal (normalized occupancy) was determined as 0.0732.

With ATCAACTA, the binding signal (normalized occupancy) amounted to 0.0737.

With CAGTTTAG, the binding signal (normalized occupancy) was 0.0719.

AACGAGCC: the binding signal (normalized occupancy) worked out at 0.0647.

For GCACAACC, the binding signal (normalized occupancy) came to 0.0725.

Turning to GAGGTAGC, the binding signal (normalized occupancy) was 0.073.

As for CGGGGGAA, the binding signal (normalized occupancy) was determined as 0.0708.

On to CCTAGAAC, for which the binding signal (normalized occupancy) is 0.0744.

Turning to GGAATATA, the binding signal (normalized occupancy) was 0.0779.

Regarding CTTCAACA, the binding signal (normalized occupancy) was determined as 0.0819.

Turning to AGGTGCAT, the binding signal (normalized occupancy) amounted to 0.0863.

For CTAGATGC, the binding signal (normalized occupancy) was 0.0774.

In the case of AACTGTTG, the binding signal (normalized occupancy) was 0.0743.

For CTACCTTC, the binding signal (normalized occupancy) came to 0.0783.

Consider CTTAAATC, for which the binding signal (normalized occupancy) came to 0.0736.

For GCTATCAA, the binding signal (normalized occupancy) is 0.0706.

Take ATACAGAT: the binding signal (normalized occupancy) turned out to be 0.0787.

Consider CCATGTTC, for which the binding signal (normalized occupancy) is 0.0828.

On to ACAATACT, for which the binding signal (normalized occupancy) turned out to be 0.0785.

In the case of CGTGAATC, the binding signal (normalized occupancy) stood at 0.0801.

ATAATAGC: the binding signal (normalized occupancy) was 0.0778.

As to TACTGTCA, the binding signal (normalized occupancy) was found to be 0.0849.

Take CCCCTGAG: the binding signal (normalized occupancy) worked out at 0.0735.

Turning to ATACTACA, the binding signal (normalized occupancy) is 0.083.

For the sequence GCGATACA, the binding signal (normalized occupancy) stood at 0.0824.

As to AACCCAGG, the binding signal (normalized occupancy) worked out at 0.0696.

AACGTAGC: the binding signal (normalized occupancy) turned out to be 0.0749.

Take CTCGCTTC: the binding signal (normalized occupancy) turned out to be 0.0707.

ACAAAGAT: the binding signal (normalized occupancy) amounted to 0.0741.

Regarding CTCGGTAA, the binding signal (normalized occupancy) stood at 0.0692.

Take AAAACAGT: the binding signal (normalized occupancy) was found to be 0.0767.

For the sequence AGCCCTAT, the binding signal (normalized occupancy) is 0.0737.

As to AATCTAAT, the binding signal (normalized occupancy) turned out to be 0.0848.

Regarding ACACACTA, the binding signal (normalized occupancy) came out at 0.0817.

GGGACGAC: the binding signal (normalized occupancy) is 0.0641.

CGTGGACA: the binding signal (normalized occupancy) was 0.0882.

For CATAATAA, the binding signal (normalized occupancy) amounted to 0.0832.

Regarding ACAGTTCA, the binding signal (normalized occupancy) was determined as 0.0754.

In the case of CGCAAAAC, the binding signal (normalized occupancy) came to 0.071.

GATTGTAC: the binding signal (normalized occupancy) was 0.0812.

Take ACGGTAGA: the binding signal (normalized occupancy) came out at 0.0739.

On to CGTAGCAC, for which the binding signal (normalized occupancy) was 0.0845.

As for AGTCTGGG, the binding signal (normalized occupancy) was 0.0695.

Take CTGCTAAC: the binding signal (normalized occupancy) was found to be 0.0703.

As to CTAGTCAA, the binding signal (normalized occupancy) was determined as 0.073.

As to CCCATTAA, the binding signal (normalized occupancy) was 0.0796.

Consider AAAATAGT, for which the binding signal (normalized occupancy) is 0.077.

Turning to GGCTCTAA, the binding signal (normalized occupancy) worked out at 0.0722.

Regarding GACGGCAA, the binding signal (normalized occupancy) worked out at 0.0705.

Turning to ACCCTGAG, the binding signal (normalized occupancy) was 0.0718.

For ACCTAGGG, the binding signal (normalized occupancy) was 0.0695.

In the case of AAAGTAGA, the binding signal (normalized occupancy) turned out to be 0.0741.

On to CACGTACG, for which the binding signal (normalized occupancy) was found to be 0.0871.

With AACCACCC, the binding signal (normalized occupancy) worked out at 0.0803.

For GTCTTGAA, the binding signal (normalized occupancy) is 0.069.

For the sequence GTGCACGA, the binding signal (normalized occupancy) worked out at 0.0931.

Regarding CGATGGGC, the binding signal (normalized occupancy) was 0.0743.

For the sequence GACCTAAA, the binding signal (normalized occupancy) amounted to 0.0709.

Take GCAAGACA: the binding signal (normalized occupancy) is 0.0782.

Regarding ACCTACTG, the binding signal (normalized occupancy) was 0.0732.

For the sequence AACAATAT, the binding signal (normalized occupancy) is 0.0773.

On to AGGACCGA, for which the binding signal (normalized occupancy) came out at 0.0724.

On to TATGAGAA, for which the binding signal (normalized occupancy) was determined as 0.0827.

Take CCTCTGTC: the binding signal (normalized occupancy) was found to be 0.0768.

ATAGCAAG: the binding signal (normalized occupancy) is 0.079.

CTATGCGA: the binding signal (normalized occupancy) stood at 0.0757.

As for CTCGAATC, the binding signal (normalized occupancy) worked out at 0.0698.

With AGTACGAC, the binding signal (normalized occupancy) came to 0.0751.

Regarding ACCACCAA, the binding signal (normalized occupancy) came to 0.0753.

With ATATTCGC, the binding signal (normalized occupancy) was 0.0786.

As for GCCACCGC, the binding signal (normalized occupancy) is 0.0708.

For CCTTTCAA, the binding signal (normalized occupancy) turned out to be 0.078.

Regarding ACTTCCAT, the binding signal (normalized occupancy) turned out to be 0.0785.

On to ATCAACGC, for which the binding signal (normalized occupancy) is 0.077.

As to GATAAAGC, the binding signal (normalized occupancy) was 0.0748.

For the sequence CAGTCGGA, the binding signal (normalized occupancy) came out at 0.0691.

TCTTTACA: the binding signal (normalized occupancy) turned out to be 0.0746.

Take GATAGAGA: the binding signal (normalized occupancy) was 0.0748.

For the sequence AGTAAGAT, the binding signal (normalized occupancy) was determined as 0.077.

As for TCCTGACA, the binding signal (normalized occupancy) stood at 0.076.

On to CGAGTGGC, for which the binding signal (normalized occupancy) amounted to 0.0717.

Consider ATGGTACA, for which the binding signal (normalized occupancy) came out at 0.0846.

In the case of AGTCGTAA, the binding signal (normalized occupancy) stood at 0.0729.

As to CTTTTAAC, the binding signal (normalized occupancy) is 0.0745.

With AGGTGCGG, the binding signal (normalized occupancy) came out at 0.0789.

For AAAAATGT, the binding signal (normalized occupancy) amounted to 0.0782.

AAAACAAG: the binding signal (normalized occupancy) worked out at 0.0705.

In the case of TATTGCAA, the binding signal (normalized occupancy) stood at 0.0707.

As for CTATCCCC, the binding signal (normalized occupancy) worked out at 0.0822.

As to AACTCAAA, the binding signal (normalized occupancy) was found to be 0.0727.

Turning to ATGTAACC, the binding signal (normalized occupancy) stood at 0.076.

Regarding GTGTGGAA, the binding signal (normalized occupancy) worked out at 0.0875.

Regarding ACATACGG, the binding signal (normalized occupancy) is 0.0807.

For the sequence GGCTCTCA, the binding signal (normalized occupancy) is 0.0759.

As to CACGCGCC, the binding signal (normalized occupancy) was determined as 0.116.

Regarding GACGAATC, the binding signal (normalized occupancy) amounted to 0.0742.

As for TTACGTAA, the binding signal (normalized occupancy) is 0.0786.

On to AAGACGGA, for which the binding signal (normalized occupancy) was found to be 0.0645.

GCCAGACA: the binding signal (normalized occupancy) amounted to 0.0735.

Consider AATGCTCA, for which the binding signal (normalized occupancy) is 0.0829.

Turning to AGCAGCTC, the binding signal (normalized occupancy) came out at 0.0687.

With CGGGCAAG, the binding signal (normalized occupancy) was determined as 0.0722.

Regarding CCGGACTC, the binding signal (normalized occupancy) was 0.0654.

In the case of AGCCTTCG, the binding signal (normalized occupancy) was 0.0682.

In the case of GGTCACTA, the binding signal (normalized occupancy) came out at 0.0724.

As to ACGAAGAG, the binding signal (normalized occupancy) was found to be 0.0753.

AGTGCCAG: the binding signal (normalized occupancy) stood at 0.0697.

Regarding TCTCAAAA, the binding signal (normalized occupancy) was determined as 0.0792.

With AGGTCATG, the binding signal (normalized occupancy) came to 0.089.

For the sequence AAACCCTG, the binding signal (normalized occupancy) was 0.0707.

For the sequence AGATGCCT, the binding signal (normalized occupancy) amounted to 0.0739.

For the sequence CCTAACCG, the binding signal (normalized occupancy) was 0.0736.

With AACGTGTC, the binding signal (normalized occupancy) turned out to be 0.101.

Regarding GCAACAAC, the binding signal (normalized occupancy) amounted to 0.0714.

On to CATAGCTA, for which the binding signal (normalized occupancy) came to 0.076.

Regarding GACGGAGC, the binding signal (normalized occupancy) is 0.0654.

Take GGCATCAA: the binding signal (normalized occupancy) is 0.0737.
